Experimental data: a collection of fitness landscapes (doi:10.1016/j.celrep.2020.107928)
Whole data set: some 81,000 sequences, median “one-hybrid fitness for binding parS DNA” near -0.17, cut for the highest 2% near 0.51. This is one part of the list.

B1: Caulobacter ParB omega fusion; a variant is named by its letters at X, in order, B8GW30 (parent)
chain: MESVVVGEPGMSEGRRGLGRGLSALLGEVDAAPAQAPGEQLGGSREAPIEILQRNPDQPRRTFREEDLEDLSNSIREKGVLQPILVRPSPDTAGEYQIVAGERAWRAAQRAGLKTVPIMVRELDDLAVLEIGIIENVQRADLNVLEEALSYKVLMEKFERTQENIAQTIGKSXSHVANXMRLLXLPDEVQSYLVSGELTAXHARAIAAAADPVALAKQIIEGGLSVRETEALARKAPNLSAGKSKGGRPPRVKDTDTQALESDLSSVLGLDVSIDHRGSTGTLTITYATLEQLDDLCNRLTRGI

Variants of: B1
Assay: one-hybrid fitness for binding parS DNA (scaled: cognate 1, non-cognate 0); higher = stronger binding
Conditions: with parS DNA site
In short: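 Pre- and post-selection plasmids were Illumina-sequenced, three replicate libraries were pooled, and any variant with under 10 reads was removed. The libraries were Caulobacter ParB with four specificity codons randomised, selected in E. coli USO through a HIS3 reporter whose site is 19 bp from the promoter. Cells grew 48 hours at 37°C on M9 without histidine, with 0.1 mM IPTG and 5 mM 3-AT. Fitness is the log change in variant-to-wild-type read ratio, rescaled against cognate and non-cognate.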

| Variant | one-hybrid fitness for binding parS DNA |
| --- | --- |
| FSKG | ≤ 0.2 |
| HLRK | ≤ 0.2 |
| LDSE | ≤ 0.2 |
| GPRH | ≤ 0.2 |
| MKNT | ≤ 0.2 |
| AIYI | ≤ 0.2 |
| FTNS | ≤ 0.2 |
| GPRF | ≤ 0.2 |
| IWQL | ≤ 0.2 |
| IAKA | ≤ 0.2 |
| VKEC | ≤ 0.2 |
| LGRV | ≤ 0.2 |
| EKVG | ≤ 0.2 |
| ATTE | ≤ 0.2 |
| PDCF | ≤ 0.2 |
| HSDW | ≤ 0.2 |
| LLVW | ≤ 0.2 |
| PMLW | ≤ 0.2 |
| AWRC | ≤ 0.2 |
| VWAR | ≤ 0.2 |
| TCRG | ≤ 0.2 |
| GMTM | ≤ 0.2 |
| CAVE | ≤ 0.2 |
| TPKY | ≤ 0.2 |
| NSTD | ≤ 0.2 |

| Variant | one-hybrid fitness for binding parS DNA |
| --- | --- |
| PPLE | ≤ 0.2 |
| DQVR | ≤ 0.2 |
| LCNG | ≤ 0.2 |
| HNAS | ≤ 0.2 |
| RKMW | ≤ 0.2 |
| YVVL | ≤ 0.2 |
| WDCG | 0.41 |
| HSEY | ≤ 0.2 |
| FYQR | ≤ 0.2 |
| FERG | ≤ 0.2 |
| AWHG | ≤ 0.2 |
| PWSQ | 0.287 |
| KYMA | ≤ 0.2 |
| PRHW | ≤ 0.2 |
| VSYW | ≤ 0.2 |
| PGHL | ≤ 0.2 |
| FART | ≤ 0.2 |
| PHKV | ≤ 0.2 |
| RILN | 0.422 |
| QSLP | ≤ 0.2 |
| TNTV | ≤ 0.2 |
| VHYS | ≤ 0.2 |
| GPNS | ≤ 0.2 |
| ISWV | ≤ 0.2 |
| TDLP | ≤ 0.2 |

| Variant | one-hybrid fitness for binding parS DNA |
| --- | --- |
| RCRY | 0.695 |
| VCWR | ≤ 0.2 |
| HRSH | ≤ 0.2 |
| LGGG | ≤ 0.2 |
| KAWD | ≤ 0.2 |
| QAVV | ≤ 0.2 |
| SQHG | ≤ 0.2 |
| ISAG | ≤ 0.2 |
| CPYR | ≤ 0.2 |
| MSTF | ≤ 0.2 |
| YHPC | ≤ 0.2 |
| DFGR | ≤ 0.2 |
| TGMR | ≤ 0.2 |
| WVMG | ≤ 0.2 |
| TAQN | ≤ 0.2 |
| ICGS | ≤ 0.2 |
| VDLF | ≤ 0.2 |
| AFAA | ≤ 0.2 |
| MHWC | ≤ 0.2 |
| ASFR | ≤ 0.2 |
| QAKK | ≤ 0.2 |
| HVSG | ≤ 0.2 |
| THRW | ≤ 0.2 |
| RCAP | ≤ 0.2 |
| IIAS | ≤ 0.2 |

| Variant | one-hybrid fitness for binding parS DNA |
| --- | --- |
| RFCW | ≤ 0.2 |
| ILKY | ≤ 0.2 |
| EQNI | ≤ 0.2 |
| MRMG | ≤ 0.2 |
| LHTF | ≤ 0.2 |
| RVAL | ≤ 0.2 |
| PVPD | ≤ 0.2 |
| LWGR | ≤ 0.2 |
| QASH | ≤ 0.2 |
| TGDA | ≤ 0.2 |
| VEHT | ≤ 0.2 |
| RGHI | ≤ 0.2 |
| NWQM | ≤ 0.2 |
| REGW | ≤ 0.2 |
| SNQE | ≤ 0.2 |
| QEAW | ≤ 0.2 |
| AWRE | ≤ 0.2 |
| CHAT | ≤ 0.2 |
| PHHD | ≤ 0.2 |
| CLHK | ≤ 0.2 |
| VMPP | ≤ 0.2 |
| ANKW | ≤ 0.2 |
| CLYG | ≤ 0.2 |
| LTWA | ≤ 0.2 |
| RVWM | 0.344 |

| Variant | one-hybrid fitness for binding parS DNA |
| --- | --- |
| RNTE | ≤ 0.2 |
| PDHQ | ≤ 0.2 |
| HHVV | ≤ 0.2 |
| EDWS | ≤ 0.2 |
| NWEC | ≤ 0.2 |
| EGDD | ≤ 0.2 |
| SSFV | ≤ 0.2 |
| GPRR | ≤ 0.2 |
| SHNG | ≤ 0.2 |
| QQPL | ≤ 0.2 |
| TAGR | ≤ 0.2 |
| SCTV | ≤ 0.2 |
| HNGW | ≤ 0.2 |
| VLSL | ≤ 0.2 |
| MQAH | ≤ 0.2 |
| NPNF | ≤ 0.2 |
| QCAQ | ≤ 0.2 |
| QMKG | ≤ 0.2 |
| TFNG | ≤ 0.2 |
| YSPM | ≤ 0.2 |
| YVFC | ≤ 0.2 |
| SDYG | ≤ 0.2 |
| RNIN | ≤ 0.2 |
| LSKG | ≤ 0.2 |
| HRHG | 0.27 |

| Variant | one-hybrid fitness for binding parS DNA |
| --- | --- |
| PCKV | ≤ 0.2 |
| ELQC | ≤ 0.2 |
| QILI | ≤ 0.2 |
| HRER | ≤ 0.2 |
| TQPS | ≤ 0.2 |
| TFCG | ≤ 0.2 |
| MVMN | ≤ 0.2 |
| APLD | ≤ 0.2 |
| KWYY | ≤ 0.2 |
| TIYR | ≤ 0.2 |
| AKPG | ≤ 0.2 |
| LLNQ | ≤ 0.2 |
| RGSR | ≤ 0.2 |
| IMSL | ≤ 0.2 |
| WMND | ≤ 0.2 |
| SYWC | ≤ 0.2 |
| MIKT | ≤ 0.2 |
| QLMF | ≤ 0.2 |
| TKVS | ≤ 0.2 |
| MPAR | ≤ 0.2 |
| TFPC | ≤ 0.2 |
| AQRY | ≤ 0.2 |
| AYVE | ≤ 0.2 |
| CYKR | ≤ 0.2 |
| EDHC | ≤ 0.2 |

| Variant | one-hybrid fitness for binding parS DNA |
| --- | --- |
| KYMT | ≤ 0.2 |
| LMLM | ≤ 0.2 |
| GYKH | ≤ 0.2 |
| HTYM | ≤ 0.2 |
| PEYQ | ≤ 0.2 |
| NFSM | ≤ 0.2 |
| TIRY | ≤ 0.2 |
| CEIR | ≤ 0.2 |
| LRNQ | ≤ 0.2 |
| LCFF | ≤ 0.2 |
| KMLY | ≤ 0.2 |
| NHKM | ≤ 0.2 |
| IALF | ≤ 0.2 |
| CVNK | ≤ 0.2 |
| IMES | ≤ 0.2 |
| CHYY | ≤ 0.2 |
| PSMM | ≤ 0.2 |
| TIFA | ≤ 0.2 |
| KTER | ≤ 0.2 |
| MLAG | ≤ 0.2 |
| LTKS | ≤ 0.2 |
| HGRH | ≤ 0.2 |
| RWNF | 0.206 |
| TRYV | ≤ 0.2 |
| KMLL | ≤ 0.2 |

| Variant | one-hybrid fitness for binding parS DNA |
| --- | --- |
| CAQA | ≤ 0.2 |
| NGSD | ≤ 0.2 |
| WPRM | ≤ 0.2 |
| AYQR | ≤ 0.2 |
| GERT | ≤ 0.2 |
| AYLD | ≤ 0.2 |
| LVKG | ≤ 0.2 |
| VPFA | ≤ 0.2 |
| PGTP | ≤ 0.2 |
| DMGA | ≤ 0.2 |
| TWTR | ≤ 0.2 |
| VAKN | ≤ 0.2 |
| FGFS | ≤ 0.2 |
| GDSY | ≤ 0.2 |
| LAMI | ≤ 0.2 |
| LLFF | ≤ 0.2 |
| AMLI | ≤ 0.2 |
| AIQG | ≤ 0.2 |
| LATA | ≤ 0.2 |
| SHLK | ≤ 0.2 |
